Data from patent US20260008853A1 (BEONE MEDICINES I, published 2026).
Results are given in words; binding and its absence hold for the method and conditions named. Some entries that bind do so weakly or less than the wild type.

Amino acid sequences for entries named in this document (tags omitted). A change or cut given only in a name is not applied to a line headed by its entry.
UniProt O75015: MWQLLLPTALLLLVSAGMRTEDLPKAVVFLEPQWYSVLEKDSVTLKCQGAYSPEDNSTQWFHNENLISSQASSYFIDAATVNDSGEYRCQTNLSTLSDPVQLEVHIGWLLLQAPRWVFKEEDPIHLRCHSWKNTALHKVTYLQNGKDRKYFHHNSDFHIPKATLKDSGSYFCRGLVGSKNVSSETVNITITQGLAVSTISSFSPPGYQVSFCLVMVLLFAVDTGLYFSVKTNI
UniProt Q8SPW2: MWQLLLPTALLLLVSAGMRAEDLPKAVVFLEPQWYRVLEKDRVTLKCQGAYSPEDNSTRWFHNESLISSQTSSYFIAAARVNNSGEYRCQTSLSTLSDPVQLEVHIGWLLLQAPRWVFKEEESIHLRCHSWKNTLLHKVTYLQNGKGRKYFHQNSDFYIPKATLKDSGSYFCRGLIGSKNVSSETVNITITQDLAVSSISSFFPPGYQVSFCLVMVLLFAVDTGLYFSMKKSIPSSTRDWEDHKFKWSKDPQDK
UniProt P08637: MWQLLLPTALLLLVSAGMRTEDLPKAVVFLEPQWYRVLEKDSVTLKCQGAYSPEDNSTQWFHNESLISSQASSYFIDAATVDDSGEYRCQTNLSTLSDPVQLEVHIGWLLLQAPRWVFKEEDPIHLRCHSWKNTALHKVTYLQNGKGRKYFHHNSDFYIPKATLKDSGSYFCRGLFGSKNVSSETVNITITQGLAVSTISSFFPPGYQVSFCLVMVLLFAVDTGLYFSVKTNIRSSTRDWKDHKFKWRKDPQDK

Tests used:
[1] = target: Human CD16B (NA1) on NK92mi/CD16B (NA1) cells (human) (UniProt O75015); test: flow cytometry on NK92mi/CD16B (NA1) cells, Alexa Fluor 647 anti-human IgG Fc
cyno CD16-His6 (cyno) = cyno CD16-His6 (cyno) (UniProt Q8SPW2); test: antigen ELISA, coated cyno CD16-His6, 1 ug/ml, HRP anti-human IgG
[2] = target: Human CD16A (V158) on NK92mi/CD16A V158 cells (human) (UniProt P08637); test: flow cytometry on NK92mi/CD16A (V158) cells, Alexa Fluor 647 anti-human IgG Fc
[3] = target: human CD16A-His6 (V158) (human) (UniProt P08637); test: antigen ELISA, coated human CD16A-His6 (V158), 1 ug/ml, HRP anti-human IgG
[4] = target: human CD16B-His6 (NA2) (human) (UniProt O75015); test: antigen ELISA, coated human CD16B-His6 (NA2), HRP anti-human IgG
[5] = target: human CD16B-His6 (NA1) (human) (UniProt O75015); test: antigen ELISA, coated human CD16B-His6 (NA1), HRP anti-human IgG
[6] = target: Human CD16B (NA2) on NK92mi/CD16B (NA2) cells (human) (UniProt O75015); test: flow cytometry on NK92mi/CD16B (NA2) cells, Alexa Fluor 647 anti-human IgG Fc
[7] = target: human CD16A-His6 (F158) (human) (UniProt P08637); test: antigen ELISA, coated human CD16A-His6 (F158), 1 ug/ml, HRP anti-human IgG

B1: LS21 (scFv)
scFv: EVQLVQSGAEVKKPGESLKVSCKASGYTFTSYYMHWVRQAPGQGLEWMGIINPSGGSTSYAQKFQGRVTMTRDTSTSTVYMELSSLRSEDTAVYYCARGSAYYYDFADYWGQGTLVTVSSGGGGSGGGGSGGGGSQPVLTQPSSVSVAPGQTATISCGGHNIGSKNVHWYQQRPGQSPVLVIYQDNKRPSGIPERFSGSNSGNTATLTISGTQAMDEADYYCQVWDNYSVLFGGGTKLTVL
notes: also called positive control
- binding [1]: no binding (tested: 50 ug/ml)
- binding (cyno CD16-His6 (cyno)): binds
- binding [2]: binds
- binding [3]: binds
- binding [4]: no binding (tested: 1 ug/ml)
- binding [5]: no binding (tested: 1 ug/ml)
- binding [6]: no binding (tested: 50 ug/ml)
- binding [7]: binds
